# Experimental data as given in the supplement of paper PMC12632987.
# The full ranking holds about 1,800 sequences; the median of “median log2 fold change of GCK-ALFA target abundance (FLAG IP / Myc IP barcode read proportion)” is about 0.14, and the lowest 2% start at about -0.84. Some of the results follow.
# B1: traf2_out_18_167_1877 (protein)
# chain: SAELEAEYEKATDELVRLSTIRRWLLRALEALRESREAALAVLRAALAELPDSEVLKEALEVAETESPEALRAFLESKAEELQKKANEAYKKLEELRKKK
# B2: traf2_out_11_104_655 (protein)
# chain: LTREQAREFNDFAMEARDRAREIAEAVAAELEARGHTEEAARVRALLNDPGAGISSFRNLLEELKPRLDAESRKVADAAIEELRRLQREVSEKLNELLAK
# B3: traf2_out_17_162_1559 (protein)
# chain: SPLEEEWERLLERLEELERRVRELEERLERLEELSKEEITDLLVEASEVRREALELAERARELEPEIGEERAQELIERAEEIAEEAQRIANILYQRLLEK
# B4: traf2_out_17_162_1578 (protein)
# chain: EELKKELEELKKKLEELKKKLKEFEKKLPELPKMSYEELTDLLVEVSELKREARELAEKLEELGKKLGEEEIKKLVEEAKEIAEKLQKIANKIYKEIEKK
# B5: traf2_out_16_104_1386 (protein)
# chain: SAATQAKFDKIIAELEKIAEEAQKLANQIYKLYEKASPEKKTELSDLLVEVSEIKRKALEAAEAARRAQAAGGDPKEAEEELKKLEKELKKAKKQLKELE
# B6: traf2_out_11_155_675 (protein)
# chain: SRETELNNELVDKMTEINDELKARLDAIAAEAVADHPEHAAEVAAVVEEGRKYSGTTYAGRLEQLFRRLGLEEYAARVAAAREEAQKRANEVLKKIEAEL
# B7: traf2_out_11_169_879 (protein)
# chain: EEAEKNRKLNDKALELNDEAKEELKKFALELAKKLGLNVEEIEKIFEENKNKSLSYVASELIKYFREKGKEEAAEAILKKYEELKEKINKEFSKFLKELE
# B8: traf2_out_14_166_1274 (protein)
# chain: MSPEEIAKIKEIADKQLELADEFVERARALIEKHKDRLSPELLARLNALLAQAENRGLRTVYLLLRQMAELAEEAGNEELAEEFRRLAEEAEEKYKELLK
# B9: traf2_out_12_187_961 (protein)
# chain: SVQEELLEAARAAYRRARRALEELAPTDPAARELLARLDEAWALVERHPELAGDLLVAASAVLRYAQLVREGAPPEEIAAALARARAELDELLEEGRRLE
# B10: traf2_out_8_15_2558 (protein)
# chain: SLREAARRDLDKLEKASDGDEETLMNFVIGFARGEIRLAEIYLEEGDKEAARNTLAYARALLEEAIERFEALGSPYLPRLRKEAEELRKRIEEIEKRIEE
# B11: traf2_out_11_155_687 (protein)
# chain: EKEKEINNKLVDEMSEIADAAKAEVRAIAAEAGAAHPEAAAALAATLAATAGYGLSTFAGAMAAAFRALGLDEAAARVEALLAEAQKKMNAAVKKAEAEK
# B12: traf2_out_13_95_1170 (protein)
# chain: SEEKTKKEREIASEAFDKREEIAEDLKARILALIDDPEAAALMDEVVRNMNRFTVEAAADALQAAFPEKAAEITALRDEALAKMKEIDKETTKKLNEIEE
# B13: traf2_out_5_63_2366 (protein)
# chain: SAAEEERRRLREEARLIEAAIRAVIDGREEEARRLLAEAEARGIDWRTVALYFRGMARALRLQNEPQEKIERMERAAEEARARAEAAAAAAAAAAAAAAA
# B14: traf2_out_20_3_2251 (protein)
# chain: EELRKKAEEALEAAEAQLARAAPRLPADAAAEARRLLAEARRAFKTDYTDALVAVSALRRLALEQAQAAEAAGDAETAALLQELADLAQKLAQYLYKIIE
# B15: traf2_out_14_149_1245 (protein)
# chain: SAEAELLRKAAELDREAAKALEEILKLLEAGKLEEAKKALEKAIKELEKRGEELGVTTSTIFEMEHILELLKKDPKEAKKATKEARKRAEDAAEALLSIA
# B16: traf2_out_15_48_1337 (protein)
# chain: STEALQAAGRAINDAADAVRDAVAATLDELIPKADPEVKAELEALRARARAGAPLRTLRADLEALAKKADPEQKAVLDKQIAEIDATIAAMSATMNAVEA
# B17: traf2_out_6_169_2480 (protein)
# chain: SMEEEKKKKAEELLKELEKQAEEFLNIAKQVAEGKGVSSLENALLALETLLSQTKHLYDKAIKKFKELGFEEEAKKVEELKKKRLEELEKLLKEVKEKAA
# B18: traf2_out_11_169_827 (protein)
# chain: EEAEKNRKINDKALELEDKAKKEFKEFVLKLAKEDGLDVEEIKKIFEENKNKSLSAQAAAVIEYFKSKGKEEAAKKVLEKYEELKEKINKEVTAFIKELE
# B19: traf2_out_17_162_1614 (protein)
# chain: SELEKEKEELEKELEELEKELERLEKKLENIDKLSKEELSDLLVEASEARRRAREALERIKKLEEKLDKEEYEKLSKRFEELAERFQRIANKLYKKLEEK
# Target: T1, TRAF2, Q12933
# T1 chain: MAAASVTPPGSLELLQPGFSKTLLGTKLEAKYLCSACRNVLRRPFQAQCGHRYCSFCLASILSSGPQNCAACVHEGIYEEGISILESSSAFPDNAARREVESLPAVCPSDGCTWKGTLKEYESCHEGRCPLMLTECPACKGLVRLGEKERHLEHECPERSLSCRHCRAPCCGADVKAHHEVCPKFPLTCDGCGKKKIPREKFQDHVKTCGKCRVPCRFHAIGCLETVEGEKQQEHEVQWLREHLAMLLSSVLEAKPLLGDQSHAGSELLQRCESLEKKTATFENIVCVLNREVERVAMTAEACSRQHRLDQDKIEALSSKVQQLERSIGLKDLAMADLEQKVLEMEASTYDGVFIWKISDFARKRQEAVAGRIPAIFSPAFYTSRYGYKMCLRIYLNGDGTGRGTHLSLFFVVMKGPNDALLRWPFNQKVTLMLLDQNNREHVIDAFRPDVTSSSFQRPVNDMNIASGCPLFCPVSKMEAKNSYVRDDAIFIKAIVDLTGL
# Experiment: median log2 fold change of GCK-ALFA target abundance (FLAG IP / Myc IP barcode read proportion) (log2 ratio); each designed protein is fused to an ALFA-tag nanobody in HEK293 cells to bring the named protein to FLAG-tagged glucokinase (GCK); Myc marks an untargeted standard; higher = target protein stabilised (more abundant)
# Settings: target protein: 3xFLAG-MCP-GCK-ALFA reporter; HEK293 landing pad (RPLP)
# Summary of the method: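 An ALFA-nanobody-fused binder library was recombined into HEK293 landing-pad cells and induced with 2 μg mL^−1 doxycycline. Cells were transfected with a plasmid expressing a FLAG-tagged target and a Myc-tagged standard. After 48 h, lysates underwent anti-FLAG and anti-Myc immunoprecipitation, and circular RNA barcodes were reverse transcribed, amplified and sequenced. Target abundance is the per-binder median log2 ratio of FLAG to Myc barcode read proportions. Barcodes needed ≥10^−7 proportion in both replicates, binders ≥3 barcodes per replicate, and a 10^−6 pseudocount was added; the two replicates were pooled.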
row,Binder,median log2 fold change
1,B1,0.303
2,B2,0.222
3,B3,0.0845
4,B4,0.34
5,B5,0.166
6,B6,0.222
7,B7,-0.034
8,B8,0.308
9,B9,-0.376
10,B10,-0.337
11,B11,0.176
12,B12,0.161
13,B13,-0.861
14,B14,0.331
15,B15,0.266
16,B16,0.367
17,B17,0.277
18,B18,-0.542
19,B19,0.0103
